Data taken from the supplement of paper PMC12230231.
± gives the standard deviation of the averaged measurements. Restriction of a single-cycle SIVsab GFP reporter by TRIM5α v1-loop variants in CRFK cells. Human variants: read share among cells still uninfected after two challenges over input, higher = gained restriction. Rhesus variants: share among infected cells over input, higher = lost restriction. Reporter dose not given per row. No active / inactive call per row; the paper calls a change when both replicates lie above its controls (mean + 2 SD of stop or wild-type variants, or the top frameshift score). Residues outside the varied loop are taken from Swiss-Prot. The paper reads the human single-substitution scores as noise; they and the rhesus combinations repeat poorly (rank correlation 0.3 to 0.4), indel scores repeat only for the top variants, rhesus substitutions well (0.9).

Test system: SIVsab (simian immunodeficiency virus of sabaeus monkeys), single-cycle GFP reporter, in CRFK cells
Test: enrichment among uninfected cells over input (fold); higher = stronger restriction
Settings: library: human / rhesus combinations
Procedure: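 Pools of CRFK cells expressing variants of the TRIM5α v1 loop were challenged with the single-cycle reporter, sorted by GFP and sequenced; mean of two replicates.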

Row | Sequence | enrichment
1 | MASGILVNVKEEVTCPICLELLTQPLSLDCGHSFCQACLTANHKKSMLDKGESSCPVCRISYQPENIRPNRHVANIVEKLREVKLSPEGQKVDHCARHGEKLLLFCQEDGKVICWLCERSQEHRGHHTFLTEEVAREYQVKLQAALEMLRQKQQEAEELEADIREEKASWKTQIQYDKTNVLADFEQLRDILDWEESNELQNLEKEEEDILKSLTNSETEMVQQTQSLRELISDLEHRLQGSVMELLQGVDGVIKRTENVTLKKPETFPKNQRRVFRAPDLKGMLEVFRELTDVRRYWVDVTVAPNNISCAVISEDKRQVSSPKPQIIYGAPGTLYTFQTFVNFNYCTGILGSQSITSGKHYWEVDVSKKTAWILGVCAGFQPDAMCNIEKNENYQPKYGYWVIGLEEGVKCSAFQDSSFHTPSVPFIVPLSVIICPDRVGVFLDYEACTVSFFNITNHGFLIYKFSHCSFSQPVFPYLNPRKCGVPMTLCSPSS [human TRIM5α, 330-340 = GAPGTLYTFQTFV] | 0.0328 ± 0.045
2 | MASGILVNVKEEVTCPICLELLTQPLSLDCGHSFCQACLTANHKKSMLDKGESSCPVCRISYQPENIRPNRHVANIVEKLREVKLSPEGQKVDHCARHGEKLLLFCQEDGKVICWLCERSQEHRGHHTFLTEEVAREYQVKLQAALEMLRQKQQEAEELEADIREEKASWKTQIQYDKTNVLADFEQLRDILDWEESNELQNLEKEEEDILKSLTNSETEMVQQTQSLRELISDLEHRLQGSVMELLQGVDGVIKRTENVTLKKPETFPKNQRRVFRAPDLKGMLEVFRELTDVRRYWVDVTVAPNNISCAVISEDKRQVSSPKPQIIYQAPGTLYTFQSFTNFNYCTGILGSQSITSGKHYWEVDVSKKTAWILGVCAGFQPDAMCNIEKNENYQPKYGYWVIGLEEGVKCSAFQDSSFHTPSVPFIVPLSVIICPDRVGVFLDYEACTVSFFNITNHGFLIYKFSHCSFSQPVFPYLNPRKCGVPMTLCSPSS [human TRIM5α, 330-340 = QAPGTLYTFQSFT] | 0.128 ± 0.04
3 | MASGILVNVKEEVTCPICLELLTQPLSLDCGHSFCQACLTANHKKSMLDKGESSCPVCRISYQPENIRPNRHVANIVEKLREVKLSPEGQKVDHCARHGEKLLLFCQEDGKVICWLCERSQEHRGHHTFLTEEVAREYQVKLQAALEMLRQKQQEAEELEADIREEKASWKTQIQYDKTNVLADFEQLRDILDWEESNELQNLEKEEEDILKSLTNSETEMVQQTQSLRELISDLEHRLQGSVMELLQGVDGVIKRTENVTLKKPETFPKNQRRVFRAPDLKGMLEVFRELTDVRRYWVDVTVAPNNISCAVISEDKRQVSSPKPQIIYGARGTRFTFQTFVNFNYCTGILGSQSITSGKHYWEVDVSKKTAWILGVCAGFQPDAMCNIEKNENYQPKYGYWVIGLEEGVKCSAFQDSSFHTPSVPFIVPLSVIICPDRVGVFLDYEACTVSFFNITNHGFLIYKFSHCSFSQPVFPYLNPRKCGVPMTLCSPSS [human TRIM5α, 330-340 = GARGTRFTFQTFV] | 0.0554 ± 0.04
4 | MASGILVNVKEEVTCPICLELLTQPLSLDCGHSFCQACLTANHKKSMLDKGESSCPVCRISYQPENIRPNRHVANIVEKLREVKLSPEGQKVDHCARHGEKLLLFCQEDGKVICWLCERSQEHRGHHTFLTEEVAREYQVKLQAALEMLRQKQQEAEELEADIREEKASWKTQIQYDKTNVLADFEQLRDILDWEESNELQNLEKEEEDILKSLTNSETEMVQQTQSLRELISDLEHRLQGSVMELLQGVDGVIKRTENVTLKKPETFPKNQRRVFRAPDLKGMLEVFRELTDVRRYWVDVTVAPNNISCAVISEDKRQVSSPKPQIIYGARGTRFTFPTLTNFNYCTGILGSQSITSGKHYWEVDVSKKTAWILGVCAGFQPDAMCNIEKNENYQPKYGYWVIGLEEGVKCSAFQDSSFHTPSVPFIVPLSVIICPDRVGVFLDYEACTVSFFNITNHGFLIYKFSHCSFSQPVFPYLNPRKCGVPMTLCSPSS [human TRIM5α, 330-340 = GARGTRFTFPTLT] | 0.259 ± 0.083
5 | MASGILVNVKEEVTCPICLELLTQPLSLDCGHSFCQACLTANHKKSMLDKGESSCPVCRISYQPENIRPNRHVANIVEKLREVKLSPEGQKVDHCARHGEKLLLFCQEDGKVICWLCERSQEHRGHHTFLTEEVAREYQVKLQAALEMLRQKQQEAEELEADIREEKASWKTQIQYDKTNVLADFEQLRDILDWEESNELQNLEKEEEDILKSLTNSETEMVQQTQSLRELISDLEHRLQGSVMELLQGVDGVIKRTENVTLKKPETFPKNQRRVFRAPDLKGMLEVFRELTDVRRYWVDVTVAPNNISCAVISEDKRQVSSPKPQIIYQAPGTLFTFQSFVNFNYCTGILGSQSITSGKHYWEVDVSKKTAWILGVCAGFQPDAMCNIEKNENYQPKYGYWVIGLEEGVKCSAFQDSSFHTPSVPFIVPLSVIICPDRVGVFLDYEACTVSFFNITNHGFLIYKFSHCSFSQPVFPYLNPRKCGVPMTLCSPSS [human TRIM5α, 330-340 = QAPGTLFTFQSFV] | 0.489 ± 0.34
6 | MASGILVNVKEEVTCPICLELLTQPLSLDCGHSFCQACLTANHKKSMLDKGESSCPVCRISYQPENIRPNRHVANIVEKLREVKLSPEGQKVDHCARHGEKLLLFCQEDGKVICWLCERSQEHRGHHTFLTEEVAREYQVKLQAALEMLRQKQQEAEELEADIREEKASWKTQIQYDKTNVLADFEQLRDILDWEESNELQNLEKEEEDILKSLTNSETEMVQQTQSLRELISDLEHRLQGSVMELLQGVDGVIKRTENVTLKKPETFPKNQRRVFRAPDLKGMLEVFRELTDVRRYWVDVTVAPNNISCAVISEDKRQVSSPKPQIIYGAPGTLFTFQTFVNFNYCTGILGSQSITSGKHYWEVDVSKKTAWILGVCAGFQPDAMCNIEKNENYQPKYGYWVIGLEEGVKCSAFQDSSFHTPSVPFIVPLSVIICPDRVGVFLDYEACTVSFFNITNHGFLIYKFSHCSFSQPVFPYLNPRKCGVPMTLCSPSS [human TRIM5α, 330-340 = GAPGTLFTFQTFV] | 0.12 ± 0.076
7 | MASGILVNVKEEVTCPICLELLTQPLSLDCGHSFCQACLTANHKKSMLDKGESSCPVCRISYQPENIRPNRHVANIVEKLREVKLSPEGQKVDHCARHGEKLLLFCQEDGKVICWLCERSQEHRGHHTFLTEEVAREYQVKLQAALEMLRQKQQEAEELEADIREEKASWKTQIQYDKTNVLADFEQLRDILDWEESNELQNLEKEEEDILKSLTNSETEMVQQTQSLRELISDLEHRLQGSVMELLQGVDGVIKRTENVTLKKPETFPKNQRRVFRAPDLKGMLEVFRELTDVRRYWVDVTVAPNNISCAVISEDKRQVSSPKPQIIYQARGTRYQSLVNFNYCTGILGSQSITSGKHYWEVDVSKKTAWILGVCAGFQPDAMCNIEKNENYQPKYGYWVIGLEEGVKCSAFQDSSFHTPSVPFIVPLSVIICPDRVGVFLDYEACTVSFFNITNHGFLIYKFSHCSFSQPVFPYLNPRKCGVPMTLCSPSS [human TRIM5α, 330-340 = QARGTRYQSLV] | 0.00542 ± 0.0061
8 | MASGILVNVKEEVTCPICLELLTQPLSLDCGHSFCQACLTANHKKSMLDKGESSCPVCRISYQPENIRPNRHVANIVEKLREVKLSPEGQKVDHCARHGEKLLLFCQEDGKVICWLCERSQEHRGHHTFLTEEVAREYQVKLQAALEMLRQKQQEAEELEADIREEKASWKTQIQYDKTNVLADFEQLRDILDWEESNELQNLEKEEEDILKSLTNSETEMVQQTQSLRELISDLEHRLQGSVMELLQGVDGVIKRTENVTLKKPETFPKNQRRVFRAPDLKGMLEVFRELTDVRRYWVDVTVAPNNISCAVISEDKRQVSSPKPQIIYQAPGTRYTFPSFTNFNYCTGILGSQSITSGKHYWEVDVSKKTAWILGVCAGFQPDAMCNIEKNENYQPKYGYWVIGLEEGVKCSAFQDSSFHTPSVPFIVPLSVIICPDRVGVFLDYEACTVSFFNITNHGFLIYKFSHCSFSQPVFPYLNPRKCGVPMTLCSPSS [human TRIM5α, 330-340 = QAPGTRYTFPSFT] | 0.381 ± 0.036

Same assay, conditions: library: insertions and deletions

Row | Sequence | enrichment
9 | MASGILVNVKEEVTCPICLELLTQPLSLDCGHSFCQACLTANHKKSMLDKGESSCPVCRISYQPENIRPNRHVANIVEKLREVKLSPEGQKVDHCARHGEKLLLFCQEDGKVICWLCERSQEHRGHHTFLTEEVAREYQVKLQAALEMLRQKQQEAEELEADIREEKASWKTQIQYDKTNVLADFEQLRDILDWEESNELQNLEKEEEDILKSLTNSETEMVQQTQSLRELISDLEHRLQGSVMELLQGVDGVIKRTENVTLKKPETFPKNQRRVFRAPDLKGMLEVFRELTDVRRYWVDVTVAPNNISCAVISEDKRQVSSPKQIIYGARGTRYQTFVNFNYCTGILGSQSITSGKHYWEVDVSKKTAWILGVCAGFQPDAMCNIEKNENYQPKYGYWVIGLEEGVKCSAFQDSSFHTPSVPFIVPLSVIICPDRVGVFLDYEACTVSFFNITNHGFLIYKFSHCSFSQPVFPYLNPRKCGVPMTLCSPSS [human TRIM5α, 1-codon deletion at 325] | 0.653 ± 0.57
10 | MASGILVNVKEEVTCPICLELLTQPLSLDCGHSFCQACLTANHKKSMLDKGESSCPVCRISYQPENIRPNRHVANIVEKLREVKLSPEGQKVDHCARHGEKLLLFCQEDGKVICWLCERSQEHRGHHTFLTEEVAREYQVKLQAALEMLRQKQQEAEELEADIREEKASWKTQIQYDKTNVLADFEQLRDILDWEESNELQNLEKEEEDILKSLTNSETEMVQQTQSLRELISDLEHRLQGSVMELLQGVDGVIKRTENVTLKKPETFPKNQRRVFRAPDLKGMLEVFRELTDVRRYWVDVTVAPNNISCAVISEDKRQVSSPKPQIIYGARGFVNFNYCTGILGSQSITSGKHYWEVDVSKKTAWILGVCAGFQPDAMCNIEKNENYQPKYGYWVIGLEEGVKCSAFQDSSFHTPSVPFIVPLSVIICPDRVGVFLDYEACTVSFFNITNHGFLIYKFSHCSFSQPVFPYLNPRKCGVPMTLCSPSS [human TRIM5α, 5-codon deletion at 334] | 0.225 ± 0.23
11 | MASGILVNVKEEVTCPICLELLTQPLSLDCGHSFCQACLTANHKKSMLDKGESSCPVCRISYQPENIRPNRHVANIVEKLREVKLSPEGQKVDHCARHGEKLLLFCQEDGKVICWLCERSQEHRGHHTFLTEEVAREYQVKLQAALEMLRQKQQEAEELEADIREEKASWKTQIQYDKTNVLADFEQLRDILDWEESNELQNLEKEEEDILKSLTNSETEMVQQTQSLRELISDLEHRLQGSVMELLQGVDGVIKRTENVTLKKPETFPKNQRRVFRAPDLKGMLEVFRELTDVRRYWVDVTVAPNNISCAVISEDKRQVSSPKPQIIYGARGTRYNFNYCTGILGSQSITSGKHYWEVDVSKKTAWILGVCAGFQPDAMCNIEKNENYQPKYGYWVIGLEEGVKCSAFQDSSFHTPSVPFIVPLSVIICPDRVGVFLDYEACTVSFFNITNHGFLIYKFSHCSFSQPVFPYLNPRKCGVPMTLCSPSS [human TRIM5α, 4-codon deletion at 337] | 1.12 ± 0.58
12 | MASGILVNVKEEVTCPICLELLTQPLSLDCGHSFCQACLTANHKKSMLDKGESSCPVCRISYQPENIRPNRHVANIVEKLREVKLSPEGQKVDHCARHGEKLLLFCQEDGKVICWLCERSQEHRGHHTFLTEEVAREYQVKLQAALEMLRQKQQEAEELEADIREEKASWKTQIQYDKTNVLADFEQLRDILDWEESNELQNLEKEEEDILKSLTNSETEMVQQTQSLRELISDLEHRLQGSVMELLQGVDGVIKRTENVTLKKPETFPKNQRRVFRAPDLKGMLEVFRELTDVRRYWVDVTVAPNNISCAVISEDKRQVSSPKPQIIYGARGTRYQTNYCTGILGSQSITSGKHYWEVDVSKKTAWILGVCAGFQPDAMCNIEKNENYQPKYGYWVIGLEEGVKCSAFQDSSFHTPSVPFIVPLSVIICPDRVGVFLDYEACTVSFFNITNHGFLIYKFSHCSFSQPVFPYLNPRKCGVPMTLCSPSS [human TRIM5α, 4-codon deletion at 339] | 1.88 ± 0.07
